Assay results as given in PubChem BioAssay AID1454 (National Center for Advancing Translational Sciences (NCATS), 2008).
Where “and” joins values, the source holds several entries; their conditions need not be identical. Equal entries are not always repeated. Among all 130,000 compounds or so, about 550 (0.42%) were called active. Inconclusive results, whose numbers are uncertain, are shown with a selection of clear calls. The call rests on the fitted dose curve; in most records, active means well fitted inhibition curve with a large enough effect; inconclusive means small, poorly fitted or top-dose-only effect, or effect the other way; inactive means flat fitted curve, though single readings scatter. A potency beside an inconclusive call is a rough fit, not a confirmed value.

Assay: qHTS Assay for Inhibitors of the ERK Signaling Pathway using a Homogeneous Screening Assay; Stimulation with EGF; further: nearly all actives have a fitted effect of over 55% in size
Details: HEK293-V1b, EGF-stimulated phospho-ERK AlphaScreen
How it was run: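 Phospho-ERK1/2 measured by AlphaScreen (SureFire) after 5 min 25 nM EGF stimulation of V1b-expressing HEK293 cells preincubated 30 min at 37C with titrated compounds; data scaled to DMSO and EGF controls, Hill-fitted AC50.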
Potency means the concentration at half of the fitted maximal effect; tags describe the fitted curve by direction and shape.

Row | Structure (SMILES) | Potency
1 | O=C(Nc1ccc(-c2csc(Nc3cccc(C(F)(F)F)c3)n2)cc1)c1ccccc1 | inconclusive: 31.6 µM [inhibitor, single point]
2 | COc1cc(C2CC(=O)c3c([nH]c(C(=O)OCCOC(C)C)c3C)C2)cc(OC)c1OC (stereo not given) | inconclusive: 31.6 µM [inhibitor, single point]
3 | O=[N+]([O-])c1cc(-c2ccc(C(=S)N3CCOCC3)o2)ccc1Cl | inconclusive: 31.6 µM [inhibitor, single point]
4 | Cc1ccc(-n2c(O)c(C=Nc3ccccc3-c3n[nH]c(=S)[nH]c3=O)c3ccccc3c2=O)c(C)c1 | inconclusive: 20 µM [inhibitor, partial curve]
5 | O=[N+]([O-])c1cc(C(F)(F)F)cc([N+](=O)[O-])c1N1CCN(S(=O)(=O)c2ccccc2)CC1 | inconclusive: 39.8 µM [inhibitor, single point]
6 | O=C(c1ccccc1)N1CCN(c2ccc([N+](=O)[O-])c(NCC3CCCO3)c2)CC1 (stereo not given) | inconclusive: 1 µM [inhibitor, full curve, poor fit]
7 | O=[N+]([O-])c1ccccc1S(=O)(=O)N1CCN(CC2CC3C=CC2C3)CC1 (stereo not given) | inconclusive: 31.6 µM [inhibitor, partial curve]
8 | O=C(N/N=C/c1ccc(-c2cccc([N+](=O)[O-])c2)o1)c1ccccc1O | inconclusive: 35.5 µM [inhibitor, single point]
9 | CC1(C)CCCC2(C)C3C(O)CC2(C)C(O)C31 (stereo not given) | inactive
10 | Cc1ccc(/C=C2/C(=O)ON=C2c2ccccc2)o1 | inconclusive: 39.8 µM [inhibitor, single point]
11 | C/C(=N\NC(=O)c1cc(-c2ccncc2)nc2ccccc12)c1ccc(OC(F)F)cc1 | inconclusive: 14.1 µM [inhibitor, partial curve]
12 | Clc1cccc(-c2nc(NCC3CCCO3)c3ccccc3n2)c1 (stereo not given) | inconclusive: 28.2 µM [inhibitor, single point]
13 | COc1ccc2oc(N)c(C=O)c(=O)c2c1 | inconclusive: 39.8 µM [inhibitor, single point]
14 | CC1CC(=O)N(c2ccc(NCCc3ccc(O)cc3)c([N+](=O)[O-])c2)C1=O (stereo not given) | inconclusive: 35.5 µM [inhibitor, single point]
15 | N#C/C(=C\c1ccc([N+](=O)[O-])cc1)c1ccccn1 | inconclusive: 8.91 µM [inhibitor, partial curve]
16 | CC(=N/O)/C(C)=N\NC(=O)c1ccccn1 | inactive
17 | CCc1cc2c(nc1CC)CCN(CC/C(C)=N/OC[C@H]1O[C@H](c3ccccc3)C=C[C@@H]1Oc1ccc(OC)cc1)C2 | inconclusive: 10 µM [inhibitor, partial curve]
18 | C(=C\c1ccccc1)/CN1CCN(C(c2ccccc2)c2ccccc2)CC1 | inconclusive: 17.8 µM [inhibitor, single point] and inconclusive: 39.8 µM [inhibitor, single point]
19 | Cc1ccc(S(=O)(=O)c2cnc(-c3ccccc3)nc2N2CCCCC2)cc1 | inconclusive: 39.8 µM [activator, single point]
20 | COc1ccc(NC2c3ccccc3C(=O)N2Cc2ccc3c(c2)OCO3)cc1 (stereo not given) | inconclusive: 31.6 µM [inhibitor, single point]

Row | Structure (SMILES) | Potency
21 | COc1ccc(CCNC(=O)CSc2nc(O)cc(=O)[nH]2)cc1OC | inconclusive: 0.501 µM [inhibitor, full curve, poor fit]
22 | Cc1cccc2sc(NNC(=O)c3ccc(S(=O)(=O)N4CC(C)CC(C)C4)cc3)nc12 (stereo not given) | inconclusive: 17.8 µM [inhibitor, single point]
23 | COC(=O)C1=CN(Cc2ccc(OC)cc2)C=C(C(=O)OC)C1c1ccsc1 | inconclusive: 20 µM [activator, partial curve]
24 | Cn1cccc1/C=C1\SC(=S)N(NC(=O)c2ccccc2O)C1=O | inconclusive: 39.8 µM [inhibitor, partial curve, poor fit]
25 | COC(=O)[C@H](COC(C)(C)C)NC(=O)O[C@@H]1Cc2cc(Br)ccc2O[C@H]1c1cccc(OC)c1 | inactive
26 | O=C(CN1CCOCC1)Nc1ccc2c(c1)OCCO2 | inactive
27 | CCOc1ccc(-c2cn3ccccc3n2)cc1 | inconclusive: 39.8 µM [inhibitor, single point]
28 | COc1ccc(-c2csc(N3CCN(C(=O)c4ccccc4)CC3)n2)cc1 | inconclusive: 35.5 µM [inhibitor, single point]
29 | COC(=O)c1cc(=O)n(Cc2cccs2)c(=Nc2ccccc2)s1 | inconclusive: 17.8 µM [inhibitor, partial curve, poor fit]
30 | CN(CC(=O)Nc1cccc(F)c1)CC(=O)Nc1cccc(S(=O)(=O)N2CCCCCC2)c1 | inconclusive: 39.8 µM [inhibitor, single point]
31 | CCCCC1=CC2=C(c3ccco3)C(=O)C(C)(OC(=O)c3ccc(OC)cc3)C(=O)C2=CN1CC(C)C (stereo not given) | inactive
32 | C/C(=N\NC(=O)c1ccccc1[N+](=O)[O-])c1ccc(Br)s1 | inconclusive: 39.8 µM [activator, single point]
33 | O=C(O)/C=C/c1ccc([N+](=O)[O-])o1 | inactive
34 | Nc1nc(-c2ccccc2)c(N=Nc2cccc3ccccc23)s1 | active: 20 µM
35 | Cc1ccc(C(C)C)cc1OCC(=O)N/N=C/c1ccc2c(c1)OCCO2 | inconclusive: 28.2 µM [inhibitor, single point]
36 | CCC(C)NC(=S)N1CCN(C(c2ccccc2)c2ccccc2)CC1 (stereo not given) | inactive
37 | CCc1cccc2c1NC1(CCCC1)CC2C (stereo not given) | inconclusive: 39.8 µM [inhibitor, single point]
38 | CS(=O)(=O)N1CCN(C(=O)c2cc(-c3cccnc3)nc3ccc(Br)cc23)CC1 | inactive
39 | Fc1cccc(Cl)c1-c1nnc2ccc3ccccc3n12 | inconclusive: 39.8 µM [inhibitor, single point]
40 | S=c1[nH]nc(C2CCCCC2)n1/N=C/C(Cl)=C\c1ccccc1 | inconclusive: 39.8 µM [inhibitor, single point]
